Like-named read-outs stand apart in the source and are kept apart here. Some results are limits rather than exact numbers.

The conditions of series [1]: ICR (CD-1), mouse, in vivo, 180 mg/kg.
The conditions of series [2]: dog, in vivo, 140 mg/kg.
The conditions of series [3]: human, in vivo.
The conditions of series [4]: dog, in vivo.
A further series can be described thus: clinical. The note with it: human, in vivo, po, 1600 mg.

With `CC(C)C(=O)OC[C@H]1O[C@@H](n2ccc(NO)nc2=O)[C@H](OC(=O)C(C)C)[C@@H]1OC(=O)C(C)C` [EIDD-2800], the “parent prodrug observed in plasma” value in series [1] and in series [2] was “No EIDD-2800 (parent) was observed at any time point” throughout.
Take `CC(C)C(=O)OC[C@H]1O[C@@H](n2ccc(NO)nc2=O)[C@H](O)[C@@H]1O` [EIDD-2801]: in series [3], the “EIDD-2801 concentrations as share of EIDD-1931 concentrations” value is recorded as “approximately 0.2%” and the “EIDD-2801 detected in the urine, share of the dose” value is “approximately 0.002%”. Moreover, the dose-limiting toxicity result in series [4] is “bone marrow toxicity”. Further, in “clinical” (mean Cmax of EIDD-2801 (prodrug) in plasma), the Cmax is no more than 0.0132 µg/mL. In the series “clinical” (median tmax of EIDD-2801 (prodrug) in plasma), the Tmax was 15 to 45 min.

These data come from US20250064844A1 (Emory University, priority 2020, published 2025).
